The values that follow come from the BET-seq Pho4 binding data (Le et al. 2018).

Some of the results follow. Values were computed here from the reads of four pooled replicates and scatter widely.

For this test, the target named is T1, Pho4 (S. cerevisiae) (UniProt P07270).
T1 sequence: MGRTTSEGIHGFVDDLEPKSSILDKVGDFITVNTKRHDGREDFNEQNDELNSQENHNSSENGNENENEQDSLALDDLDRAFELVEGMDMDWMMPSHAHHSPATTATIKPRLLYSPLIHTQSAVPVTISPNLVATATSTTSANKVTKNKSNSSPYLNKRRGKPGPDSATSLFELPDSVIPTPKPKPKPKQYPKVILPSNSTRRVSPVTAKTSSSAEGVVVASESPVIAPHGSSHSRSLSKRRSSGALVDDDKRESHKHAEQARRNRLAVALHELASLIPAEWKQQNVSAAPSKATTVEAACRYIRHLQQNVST
Put plainly: relative binding free energy (BET-seq); higher = weaker binding. The settings on record: reference: library average.
On to GATCGCACGTGTGAGG, for which the “relative binding free energy” value was 0.22 kcal/mol. To TATTACACGTGCGTGT belongs 0.05 kcal/mol; to TTTCGCACGTGGGTGG, -0.22 kcal/mol. To AATTTCACGTGTAAGG belongs 0.3 kcal/mol; to ACGGGCACGTGATTTA, 0.16 kcal/mol; to GGGGGCACGTGGGGGA, -0.11 kcal/mol.

For AGGCTCACGTGATTAT, the “relative binding free energy” value is 0.36 kcal/mol. In the case of GTTCACACGTGTGTGG it was 0.25 kcal/mol.

As for AGATTCACGTGCGTTA, the “relative binding free energy” value is 0.17 kcal/mol. In the case of CGTATCACGTGCTTTT it was 0.28 kcal/mol.

As for GTAAACACGTGTTGCG, the “relative binding free energy” value was 0.09 kcal/mol. To AGGTACACGTGGGCAT belongs -0.14 kcal/mol; to AGTGGCACGTGATCGT, -0.19 kcal/mol. In the case of ATTATCACGTGAGGGG it was 0.33 kcal/mol.

With ATAATCACGTGTAAGG, the “relative binding free energy” value amounted to 0.13 kcal/mol. Regarding GATCGCACGTGGTTTT, the “relative binding free energy” value came out at 0.1 kcal/mol. To AGTTGCACGTGTTAAG belongs 0.18 kcal/mol; to GTAATCACGTGATTTG, 0.28 kcal/mol; to GTGGTCACGTGCGGGT, 0.13 kcal/mol.

Turning to GGAAACACGTGGGAGG, the “relative binding free energy” value was -0.05 kcal/mol. As to GGTTACACGTGCGTCG, the “relative binding free energy” value came out at 0.17 kcal/mol. Take TGGCGCACGTGGTAGC: the “relative binding free energy” value is -0.04 kcal/mol.

In the case of CGATGCACGTGATGGG, the “relative binding free energy” value was -0.02 kcal/mol.

For TTTGGCACGTGGCATG, the “relative binding free energy” value is -0.25 kcal/mol. With GTCATCACGTGGGGGA, the “relative binding free energy” value was -0.01 kcal/mol.

Turning to AAGTGCACGTGGTAAG, the “relative binding free energy” value was 0.03 kcal/mol. In the case of ATTGTCACGTGCCGTG it was 0.12 kcal/mol; in that of ACGGGCACGTGGTTTG, -0.19 kcal/mol. To ACTGGCACGTGATTGT belongs -0.06 kcal/mol; to ATGTTCACGTGCTGAT, 0.23 kcal/mol. To GGTTTCACGTGCTGTA belongs 0.39 kcal/mol; to GATATCACGTGGAGTG, 0.19 kcal/mol. Regarding TTTCTCACGTGGTTCG, the “relative binding free energy” value is 0.19 kcal/mol. In the case of AGAACCACGTGTGTGG it was 0.04 kcal/mol; in that of CGCGTCACGTGTGTGC, 0.08 kcal/mol; in that of TTTCTCACGTGATGCG, 0.41 kcal/mol. As to TCAGTCACGTGAAAGG, the “relative binding free energy” value worked out at 0.24 kcal/mol. In the case of AATGTCACGTGATTAG it was 0.09 kcal/mol; in that of CTGGTCACGTGAGGGC, 0.26 kcal/mol; in that of GGCAGCACGTGTGGGC, 0.06 kcal/mol.

On to TGGTTCACGTGTCTGA, for which the “relative binding free energy” value stood at 0.34 kcal/mol. In the case of TGCGTCACGTGATGCG, the “relative binding free energy” value stood at 0.29 kcal/mol. To GGAGTCACGTGAAGGT belongs 0.37 kcal/mol; to TGGTGCACGTGTGGTG, 0.1 kcal/mol. As to ATATACACGTGGATGC, the “relative binding free energy” value stood at 0.2 kcal/mol. TATAACACGTGTAGGT: the “relative binding free energy” value was -0.05 kcal/mol.

As to TGATCCACGTGGAGTT, the “relative binding free energy” value came to 0 kcal/mol. Take TGTAGCACGTGGTGTA: the “relative binding free energy” value is -0.14 kcal/mol.

As for TGGGTCACGTGTAGCT, the “relative binding free energy” value was 0.15 kcal/mol. To GGTGTCACGTGTGTGA belongs 0.19 kcal/mol.

On to TTTTACACGTGAATTG, for which the “relative binding free energy” value was 0.29 kcal/mol. For the sequence TGGTCCACGTGCGCGG, the “relative binding free energy” value was -0.19 kcal/mol. On to TGTGACACGTGCGTCG, for which the “relative binding free energy” value was -0.01 kcal/mol.

AGGTTCACGTGATTGA: the “relative binding free energy” value turned out to be 0.38 kcal/mol.

As to AATAGCACGTGGAGGG, the “relative binding free energy” value was -0.23 kcal/mol.

Regarding AGATTCACGTGGAGAG, the “relative binding free energy” value is 0.37 kcal/mol. In the case of TAAGACACGTGTTAGG it was 0.04 kcal/mol; in that of CTGGGCACGTGAGATT, 0.09 kcal/mol. To GGGTTCACGTGGCAGG belongs 0.25 kcal/mol. In the case of ATTATCACGTGTTGTC it was 0.03 kcal/mol; in that of GCAGGCACGTGGGGAG, -0.23 kcal/mol; in that of GGGGTCACGTGCGAGT, 0.2 kcal/mol. As for TCACGCACGTGATGGG, the “relative binding free energy” value came to 0.05 kcal/mol. For the sequence GGCTGCACGTGTAGGG, the “relative binding free energy” value was -0.01 kcal/mol. For the sequence TTACGCACGTGTTGTT, the “relative binding free energy” value is -0.08 kcal/mol. In the case of CGGGACACGTGTATGG it was 0.12 kcal/mol; in that of GGGTACACGTGTAGTG, 0.07 kcal/mol; in that of GATGTCACGTGGGAGT, 0.16 kcal/mol. In the case of GTTGGCACGTGAAGTT it was 0.19 kcal/mol; in that of TGGTTCACGTGTGCAG, 0.19 kcal/mol.

As for AGTGTCACGTGGGATC, the “relative binding free energy” value is -0.03 kcal/mol.

As to TATGTCACGTGGGGTA, the “relative binding free energy” value was -0.06 kcal/mol. In the case of AATTTCACGTGGTTAT it was 0.24 kcal/mol; in that of TGCGGCACGTGTAATT, 0.02 kcal/mol.

Take TGGCTCACGTGGTTTG: the “relative binding free energy” value worked out at 0.21 kcal/mol. In the case of AGTAGCACGTGATTTT it was 0.05 kcal/mol; in that of GGTTCCACGTGGTAGT, 0.09 kcal/mol; in that of GATGTCACGTGTAGTC, 0.29 kcal/mol. To TGTTGCACGTGGACGG belongs 0.08 kcal/mol; to TTTTCCACGTGCTGGT, 0.05 kcal/mol; to AGTGACACGTGTATGG, -0.08 kcal/mol. To TTTTACACGTGGCAAG belongs 0.08 kcal/mol; to GACGGCACGTGTGGTG, 0.08 kcal/mol. With TGCGTCACGTGTCTTG, the “relative binding free energy” value came to 0.14 kcal/mol. In the case of TTTATCACGTGTCGTC it was 0.33 kcal/mol; in that of AATCGCACGTGAGGGT, -0.07 kcal/mol; in that of TGTTTCACGTGTGAGC, 0.31 kcal/mol. To TTGGGCACGTGTCTTA belongs -0.11 kcal/mol; to TTGGCCACGTGTATAG, -0.05 kcal/mol. In the case of AATGACACGTGGTGGT it was -0.19 kcal/mol. Consider AATGACACGTGGAAGG, for which the “relative binding free energy” value was 0.22 kcal/mol.

As to AGTAGCACGTGCGAGG, the “relative binding free energy” value is -0.12 kcal/mol.

Regarding TGTGTCACGTGAGAGA, the “relative binding free energy” value is 0.23 kcal/mol. To GTATGCACGTGGTGTC belongs -0.1 kcal/mol. As for ACGTTCACGTGGTTGA, the “relative binding free energy” value is 0.17 kcal/mol. Regarding ATCGTCACGTGATGGC, the “relative binding free energy” value was 0.33 kcal/mol. To GAAGTCACGTGTTCGG belongs 0.22 kcal/mol; to TTCTGCACGTGTCGGG, 0.17 kcal/mol. As for TAGGGCACGTGGCAGA, the “relative binding free energy” value is -0.18 kcal/mol. In the case of GGAAACACGTGTAAGT it was 0.08 kcal/mol.

Regarding TATTTCACGTGAAGTA, the “relative binding free energy” value is 0.43 kcal/mol.

GTGGGCACGTGGAAGT: the “relative binding free energy” value was 0.11 kcal/mol. On to TATGTCACGTGTGCAA, for which the “relative binding free energy” value is -0.03 kcal/mol. As for GGTCGCACGTGTGGTA, the “relative binding free energy” value was 0.16 kcal/mol. To ATGCTCACGTGTGGTA belongs 0.23 kcal/mol; to GCATTCACGTGGTGGC, 0.25 kcal/mol. For the sequence TGAATCACGTGGCCGG, the “relative binding free energy” value came out at 0.16 kcal/mol. In the case of GAGGTCACGTGGTACG it was 0.03 kcal/mol.

Regarding TGTAACACGTGGTTAT, the “relative binding free energy” value is -0.07 kcal/mol. With CGTTTCACGTGAAAGG, the “relative binding free energy” value was determined as 0.36 kcal/mol.

Consider CAGGTCACGTGTGATT, for which the “relative binding free energy” value is -0.01 kcal/mol.

As to CAGGGCACGTGCGTTT, the “relative binding free energy” value was -0.2 kcal/mol. To GCTTTCACGTGTGCGG belongs 0.22 kcal/mol. In the case of CGGTCCACGTGGGTTG it was -0.18 kcal/mol; in that of TCTATCACGTGTAGTG, 0.17 kcal/mol.

Turning to TGCTTCACGTGAGAGG, the “relative binding free energy” value came to 0.5 kcal/mol.

With AGATTCACGTGTCATG, the “relative binding free energy” value stood at 0.09 kcal/mol. As to AGCGTCACGTGTTGAA, the “relative binding free energy” value is 0.17 kcal/mol. For TATTACACGTGTATAT, the “relative binding free energy” value was -0.06 kcal/mol. To GAGCACACGTGGGTGG belongs -0.05 kcal/mol; to TGTTGCACGTGTACTT, 0 kcal/mol. In the case of AGGGTCACGTGGCCTG it was -0.08 kcal/mol. Turning to GTGCTCACGTGTGGGC, the “relative binding free energy” value amounted to 0.38 kcal/mol. To TAATGCACGTGATGGC belongs 0.08 kcal/mol; to TATTGCACGTGTGAAT, 0.01 kcal/mol; to TCGTTCACGTGGGCTG, 0.13 kcal/mol. With TGAGTCACGTGGGGAT, the “relative binding free energy” value was -0.07 kcal/mol. In the case of AGGTACACGTGTGCCG it was 0.15 kcal/mol; in that of TGAAACACGTGTGGGA, 0.13 kcal/mol. Regarding TGGCACACGTGTGTGT, the “relative binding free energy” value is 0.15 kcal/mol. Regarding TTGTGCACGTGTGGAT, the “relative binding free energy” value was 0.02 kcal/mol. CGGAGCACGTGGAAGG: the “relative binding free energy” value is -0.12 kcal/mol. To TAAAGCACGTGAGGAT belongs 0.26 kcal/mol; to TATTGCACGTGGGGTG, -0.07 kcal/mol; to TGTAGCACGTGGTTAG, -0.07 kcal/mol.

As to ATAGGCACGTGCGAGG, the “relative binding free energy” value was -0.21 kcal/mol. In the case of AGGGTCACGTGGTACG it was 0.1 kcal/mol; in that of AGTGTCACGTGTGTGG, 0.1 kcal/mol.

Regarding GAGTGCACGTGTTGCT, the “relative binding free energy” value was -0.03 kcal/mol. To ATTATCACGTGACGGT belongs 0.31 kcal/mol. In the case of ATTTTCACGTGCTGGA it was 0.39 kcal/mol. In the case of TTGGCCACGTGGTGAA it was -0.14 kcal/mol; in that of AAGTGCACGTGCAGGG, -0.2 kcal/mol; in that of GTGGCCACGTGGTGTA, -0.07 kcal/mol. Turning to ACTGGCACGTGTGGCG, the “relative binding free energy” value was found to be 0.06 kcal/mol. To TGACGCACGTGGGGGT belongs -0.19 kcal/mol.
